The other results are listed elsewhere or left out. Most values come without repeats; read them as rough.
Tests used:
Assay in all cases: cell count relative to DMSO control; melanoma cells; higher = more viable cells
Settings in all cases: library dose: low library concentration; 72 h
[1] = test system: MZ2-MEL
[2] = test system: MeWo
[3] = test system: RPMI7951
[4] = test system: RVH-421
[5] = test system: SkMel28
[6] = test system: SkMel2
[7] = test system: SkMel30
[8] = test system: SkMel5
[9] = test system: UACC257
[10] = test system: UACC62
[11] = test system: WM115
[12] = test system: WM1716
[13] = test system: WM1745
[14] = test system: WM3526
[15] = test system: WM3619
[16] = test system: WM451Lu
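Further: cell number obtained by counting DAPI-stained nuclei in high-throughput microscope images with image analysis software, screen run in 1,536-well plates.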

Row | Compound | cell count [1] [%] | cell count [2] [%] | cell count [3] [%] | cell count [4] [%] | cell count [5] [%] | cell count [6] [%] | cell count [7] [%] | cell count [8] [%] | cell count [9] [%] | cell count [10] [%] | cell count [11] [%] | cell count [12] [%] | cell count [13] [%] | cell count [14] [%] | cell count [15] [%] | cell count [16] [%]
1 | Cc1ccc(Nc2nccc(N(C)c3ccc4c(C)n(C)nc4c3)n2)cc1S(N)(=O)=O [Pazopanib] + CCN(CC)CCCCNc1ncc2cc(-c3cc(OC)cc(OC)c3)c(NC(=O)NC(C)(C)C)nc2n1 [PD173074] (first compound 0.4 µM, partner dose 0.1 µM) | 79.6 | 115 | 88.8 | 76.3 | 88.3 | 107 | 72.9 | 79.2 | 77.1 | 90.9 | 100 | 93.4 | 97.3 | 93.6 | 84.8 | 101
2 | O=C(/C=C/c1cccnc1)NCCCCC1CCN(C(=O)c2ccccc2)CC1 + N#Cc1c(O)c2c(-c3ccc(-c4ccccc4O)cc3)csc2[nH]c1=O [A769662] (first compound 0.01 µM, partner dose 2 µM) | 38.8 | 96.8 | 115 | 51.2 | 93.7 | 48.6 | 107 | 97.4 | 123 | 92.5 | 91.3 | 90.2 | 110 | 114 | 86.2 | 109
3 | CC1(C)CCC(c2ccc(Cl)cc2)=C(CN2CCN(c3ccc(C(=O)NS(=O)(=O)c4ccc(N[C@H](CCN5CCOCC5)CSc5ccccc5)c(S(=O)(=O)C(F)(F)F)c4)cc3)CC2)C1 + O=S(=O)(c1ccccc1)N(CC(F)(F)F)c1ccc(C(O)(C(F)(F)F)C(F)(F)F)cc1 [T0901317] (first compound 0.4 µM, partner dose 1.4 µM) | 94.1 | 54.5 | 48.3 | 63.3 | 88.4 | 85.3 | 56 | 59.3 | 75.6 | 97.1 | 76.9 | 60.2 | 17.4 | 80.9 | 77.6 | 97.3
4 | O=C(/C=C/c1cccnc1)NCCCCC1CCN(C(=O)c2ccccc2)CC1 + CC(C)(C)c1cnc(CSc2cnc(NC(=O)C3CCNCC3)s2)o1 [SNS-032] (first compound 0.01 µM, partner dose 0.01 µM) | 32.6 | 108 | 92.5 | 59.8 | 81.4 | 54.6 | 79.9 | 83.2 | 97.2 | 91 | 85.1 | 87.3 | 90.9 | 122 | 53.9 | 104
5 | Cc1ccc(Nc2nccc(N(C)c3ccc4c(C)n(C)nc4c3)n2)cc1S(N)(=O)=O [Pazopanib] + Cc1cn(-c2cc(NC(=O)c3ccc(C)c(Nc4nccc(-c5cccnc5)n4)c3)cc(C(F)(F)F)c2)cn1 [nilotinib] (first compound 0.4 µM, partner dose 0.2 µM) | 74 | 98 | 93.1 | 89.9 | 90.4 | 89.4 | 99.7 |  |  | 97 | 105 | 99.8 | 93.3 | 84.9 | 92 | 89.4
6 | O=C(/C=C/c1cccnc1)NCCCCC1CCN(C(=O)c2ccccc2)CC1 + CN(NC(=O)CC(=O)NN(C)C(=S)c1ccccc1)C(=S)c1ccccc1 [STA4783] (first compound 0.01 µM, partner dose 0.006 µM) | 38.6 | 99.7 | 95.4 | 37.7 | 86.7 | 57.9 | 90.5 | 97 | 70.5 | 93.6 | 77.3 | 58.3 | 28.1 | 101 | 41.6 | 131
7 | Cc1ccc(Nc2nccc(N(C)c3ccc4c(C)n(C)nc4c3)n2)cc1S(N)(=O)=O [Pazopanib] + CCc1ccc(CCOc2ccc(CC3SC(=O)NC3=O)cc2)nc1 [pioglitazone] (first compound 0.4 µM, partner dose 2 µM) | 68.2 | 116 | 94.4 | 89.7 | 90.8 | 104 | 78.7 | 78.7 | 89.8 | 83.3 | 95.2 | 83.2 | 83.8 | 87 | 87.4 | 96
8 | O=C(/C=C/c1cccnc1)NCCCCC1CCN(C(=O)c2ccccc2)CC1 + Oc1nc(-c2ccc(C(F)(F)F)cc2)nc2c1CSCC2 [XAV939] (first compound 0.01 µM, partner dose 2 µM) | 81.8 | 103 | 88.8 | 78.8 | 87.9 | 75.7 | 96.9 | 70.4 | 94.2 | 86.2 | 81.4 | 67.4 | 87.2 | 89.8 | 111 | 105
9 | CC1(C)CCC(c2ccc(Cl)cc2)=C(CN2CCN(c3ccc(C(=O)NS(=O)(=O)c4ccc(N[C@H](CCN5CCOCC5)CSc5ccccc5)c(S(=O)(=O)C(F)(F)F)c4)cc3)CC2)C1 + COc1cc2c(Oc3ccc4[nH]c(C)cc4c3F)ncnc2cc1OCCCN1CCCC1 [cediranib] (first compound 0.4 µM, partner dose 0.4 µM) | 95.9 | 77.6 | 65.7 | 80.6 | 106 | 93.6 | 73 | 73.2 | 73.3 | 98.7 | 89.6 | 70.6 | 8.9 | 96 | 94.6 | 81.8
10 | O=C(/C=C/c1cccnc1)NCCCCC1CCN(C(=O)c2ccccc2)CC1 + c1cc(-c2cnn3cc(-c4ccc(OCCN5CCCCC5)cc4)cnc23)ccn1 [Dorsomorphin] (first compound 0.01 µM, partner dose 0.4 µM) | 44.1 | 96.4 | 108 | 52.9 | 92.3 | 54.3 | 102 | 94.9 | 96.6 | 94.8 | 103 | 95.3 | 95.3 | 91 | 88.5 | 111
11 | Cc1ccc(Nc2nccc(N(C)c3ccc4c(C)n(C)nc4c3)n2)cc1S(N)(=O)=O [Pazopanib] + C[C@@H]1CCN(C(=O)CC#N)C[C@@H]1N(C)c1ncnc2[nH]ccc12 [CP690550] (first compound 0.4 µM, partner dose 1 µM) | 76.4 | 98.4 | 86.9 | 86.6 | 96 | 92.9 | 85.8 | 93.3 | 90.7 | 98.7 | 87.9 | 90.8 | 113 | 94.7 | 101 | 81
12 | O=C(/C=C/c1cccnc1)NCCCCC1CCN(C(=O)c2ccccc2)CC1 + CS(=O)(=O)c1ccc(C(=O)Nc2ccc(Cl)c(-c3ccccn3)c2)c(Cl)c1 [vismodegib] (first compound 0.01 µM, partner dose 1 µM) | 40.9 | 108 | 110 | 67.3 | 93.4 | 23.8 | 97.9 |  |  | 80.8 | 97.1 | 94.5 | 98.4 | 100 | 76.3 | 89.9
13 | O=C(/C=C/c1cccnc1)NCCCCC1CCN(C(=O)c2ccccc2)CC1 + COc1cc2c(Oc3ccc4[nH]c(C)cc4c3F)ncnc2cc1OCCCN1CCCC1 [cediranib] (first compound 0.01 µM, partner dose 0.4 µM) | 47.6 | 106 | 91.8 | 54.8 | 89.4 | 54.5 | 102 | 94.9 | 102 | 91.2 | 85.8 | 96.8 | 95.1 | 94.4 | 93.6 | 102
14 | Cc1ccc(Nc2nccc(N(C)c3ccc4c(C)n(C)nc4c3)n2)cc1S(N)(=O)=O [Pazopanib] + Cn1sc(=O)n(Cc2ccccc2)c1=O [TDZD-8] (first compound 0.4 µM, partner dose 0.4 µM) | 74.9 | 101 | 96 | 98.4 | 89.8 | 101 | 89.3 |  |  | 106 | 96 | 92.6 | 89.1 | 98.8 | 108 | 90.5
15 | CC1(C)CCC(c2ccc(Cl)cc2)=C(CN2CCN(c3ccc(C(=O)NS(=O)(=O)c4ccc(N[C@H](CCN5CCOCC5)CSc5ccccc5)c(S(=O)(=O)C(F)(F)F)c4)cc3)CC2)C1 + CN(NC(=O)CC(=O)NN(C)C(=S)c1ccccc1)C(=S)c1ccccc1 [STA4783] (first compound 0.4 µM, partner dose 0.006 µM) | 91 | 84.7 | 57.7 | 95.2 | 82.1 | 95.2 | 75.1 | 83.4 | 77.4 | 103 | 59 | 65.8 | 8.33 | 68.4 | 64.4 | 121
16 | O=C(/C=C/c1cccnc1)NCCCCC1CCN(C(=O)c2ccccc2)CC1 + O=C(O)C(=O)Nc1sc2c(c1C(=O)O)CCNC2 [TCS401] (first compound 0.01 µM, partner dose 1.66667 µM) | 73.5 | 114 | 111 | 85.1 | 91.1 | 66.4 | 84.2 | 84.7 | 86.7 | 81.2 | 86.3 | 87.4 | 92.5 | 97.3 | 86.4 | 88.2
